US20160237160A1, “ANTI-TWEAKR ANTIBODIES AND USES THEREOF” (BAYER PHARMA AKTIENGESELLSCHAFT, priority 2013, published 2016)

Molecular target: T1, TWEAKR protein (TPP-2305) (Homo sapiens, UniProt Q9NP84)
T1 construct: TPP-2305; hTNFRSF12Aaa28-80; Human; 30R-AT080; 168; purchased Fitzgerald Inc 30R-AT080
Experiment: Biacore monovalent KD with TWEAKR protein
Conditions: first order 1:1 binding model
Experimental: Binding affinities of anti-TWEAKR antibodies were determined by surface plasmon resonance analysis on a Biacore T100 instrument (GE Healthcare Biacore, Inc.). Antibodies were immobilized onto a CM5 sensor chip through an indirect capturing reagent, anti-human IgG(Fc). Reagents from the “Human Antibody Capture Kit” (BR-1008-39, GE Healthcare Biacore, Inc.) were used as described by the manufacturer. Anti-TWEAKR antibodies were injected at a concentration of 10 μg/ml at 10 μl/min for 10 sec.
Sensorgrams were generated after in-line reference cell correction followed by buffer sample subtraction. The dissociation equilibrium constant (KD) was calculated based on the ratio of association (kon) and dissociation rated (koff) constants, obtained by fitting sensorgrams with a first order 1:1 binding model.

Row | ka [M⁻¹ s⁻¹] | kd [s⁻¹] | Molecule
1 | 5.1e+06 | 0.13 | TPP-2148: anti-TWEAKR human IgG1; heavy chain SEQ ID NO: 32, light chain SEQ ID NO: 31 (antibody, listed as Homo Sapiens) heavy: EVQLLESGGGLVQPGGSLRLSCAASGFTFSPYPMMWVRQAPGKGLEWVSYISPSGGKTHYADSVKGRFTISRDNSKNTLYLQMNSLRAEDTAVYYCARGGDTYFDYFDYWGQGTLVTVSS[human IgG1 constant region not shown] light: DIQMTQSPATLSASVGDRVTITCRASQSISSYLNWYQQKPGKAPKLLIYQASSLQSGVPSRFSGSGSGTDFTLTISSLQPEDFATYYCQQSYTSPFITFGPGTKVEIKRTVAAPSVFIFPPSDEQLKSGTASVVCLLNNFYPREAKVQWKVDNALQSGNSQESVTEQDSKDSTYSLSSTLTLSKADYEKHKLYACEVTHQGLSSPVTKSFNRGEC
2 | 4.1e+06 | 0.09 | TPP-2093: anti-TWEAKR human IgG1; heavy chain SEQ ID NO: 22, light chain SEQ ID NO: 21 (antibody, listed as Homo Sapiens) heavy: EVQLLESGGGLVQPGGSLRLSCAASGFTFSPYPMMWVRQAPGKGLEWVSYISPSGGSTHYADSVKGRFTISRDNSKNTLYLQMNSLRAEDTAVYYCARGGDTYFDYFDYWGQGTLVTVSS[human IgG1 constant region not shown] light: DIQMTQSPSSLSASVGDRVTITCRASQSISSYLNWYQQKPGKAPKLLIYQASSLQSGVPSRFSGSGSGTDFTLTISSLQPEDFATYYCQQSYTSPFITFGQGTKVEIKRTVAAPSVFIFPPSDEQLKSGTASVVCLLNNFYPREAKVQWKVDNALQSGNSQESVTEQDSKDSTYSLSSTLTLSKADYEKHKVYACEVTHQGLSSPVTKSFNRGEC
3 | 8.4e+06 | 0.1 | TPP-2149: anti-TWEAKR human IgG1; heavy chain SEQ ID NO: 12, light chain SEQ ID NO: 11 (antibody, listed as Homo Sapiens) heavy: EVQLLESGGGLVQPGGSLRLSCAASGFTFSPYPMIWVRQAPGKGLEWVSYISPSGGKTHYADSVKGRFTISRDNSKNTLYLQMNSLRAEDTAVYYCARGGDTYFDYFDYWGQGTLVTVSS[human IgG1 constant region not shown] light: DIQMTQSPATLSASVGDRVTITCRASQSISGYLNWYQQKPGKAPKLLIYQASSLQSGVPSRFSGSGSGTDFTLTISSLQPEDFATYYCQQSYTSPFITFGPGTKVEIKRTVAAPSVFIFPPSDEQLKSGTASVVCLLNNFYPREAKVQWKVDNALQSGNSQESVTEQDSKDSTYSLSSTLTLSKADYEKHKLYACEVTHQGLSSPVTKSFNRGEC
